Laboratory results: paper PMC8421406, “C9orf72-derived arginine-rich poly-dipeptides impede phase modifiers” (Nature Communications, 2021)
Results are given in words; binding and its absence hold for the method and conditions named. For some of these results: Binding seen in cells or lysates may run through a third protein. Some binding calls cover weakened binding; strength is not graded here. Where a sequence is shown, tags or fusion partners need not be part of it.

The chains behind the UniProt entries cited, without tags or fusion partners. Residues count along the entry.
UniProt Q92973: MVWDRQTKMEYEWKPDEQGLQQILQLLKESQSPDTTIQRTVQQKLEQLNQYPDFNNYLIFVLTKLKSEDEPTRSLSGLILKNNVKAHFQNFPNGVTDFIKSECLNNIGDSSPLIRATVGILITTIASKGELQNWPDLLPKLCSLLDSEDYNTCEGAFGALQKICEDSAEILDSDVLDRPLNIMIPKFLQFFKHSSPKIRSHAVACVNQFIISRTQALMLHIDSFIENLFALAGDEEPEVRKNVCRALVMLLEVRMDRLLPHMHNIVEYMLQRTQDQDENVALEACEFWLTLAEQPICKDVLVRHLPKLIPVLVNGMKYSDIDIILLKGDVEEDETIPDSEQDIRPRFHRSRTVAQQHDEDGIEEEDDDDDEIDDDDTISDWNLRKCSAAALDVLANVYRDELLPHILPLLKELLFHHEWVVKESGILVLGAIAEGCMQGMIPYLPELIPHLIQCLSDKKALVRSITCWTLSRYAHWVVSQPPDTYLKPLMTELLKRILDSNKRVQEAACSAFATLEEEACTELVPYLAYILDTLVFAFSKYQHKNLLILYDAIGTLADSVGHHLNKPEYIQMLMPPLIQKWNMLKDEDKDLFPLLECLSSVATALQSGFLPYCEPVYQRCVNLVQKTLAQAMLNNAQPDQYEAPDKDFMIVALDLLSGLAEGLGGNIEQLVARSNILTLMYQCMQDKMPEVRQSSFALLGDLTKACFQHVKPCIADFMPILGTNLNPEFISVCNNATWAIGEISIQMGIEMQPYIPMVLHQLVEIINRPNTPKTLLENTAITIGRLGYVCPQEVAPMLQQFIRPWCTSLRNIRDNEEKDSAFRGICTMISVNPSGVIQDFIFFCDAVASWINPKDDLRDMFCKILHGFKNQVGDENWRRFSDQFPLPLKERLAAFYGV
UniProt P02769, residues 25-607: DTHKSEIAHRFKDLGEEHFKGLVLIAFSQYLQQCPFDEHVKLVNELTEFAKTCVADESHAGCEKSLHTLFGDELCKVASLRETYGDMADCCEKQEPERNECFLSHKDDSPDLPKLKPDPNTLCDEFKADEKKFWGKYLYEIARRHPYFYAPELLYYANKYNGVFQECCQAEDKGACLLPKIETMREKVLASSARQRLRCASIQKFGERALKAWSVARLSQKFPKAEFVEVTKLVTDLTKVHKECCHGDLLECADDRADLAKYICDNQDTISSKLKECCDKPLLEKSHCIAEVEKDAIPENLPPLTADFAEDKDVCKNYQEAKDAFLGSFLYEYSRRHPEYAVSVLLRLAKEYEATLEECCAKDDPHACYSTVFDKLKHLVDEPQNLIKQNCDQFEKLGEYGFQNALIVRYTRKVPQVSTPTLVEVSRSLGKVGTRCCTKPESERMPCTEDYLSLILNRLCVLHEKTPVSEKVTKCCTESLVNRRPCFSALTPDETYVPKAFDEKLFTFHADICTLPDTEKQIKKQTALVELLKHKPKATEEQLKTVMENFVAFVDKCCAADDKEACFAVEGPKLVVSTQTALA

Columns and labels:
[1] = target: T1, Glutathione S-transferase (GST):PR18; experiment: pull-down; 4 μg GST protein immobilized on 30 μL GSH sepharose beads, incubated with equal molar protein for 20–30 min, washed three times; 20 mM HEPES pH 7.4, 150 mM NaCl, 10% glycerol, 2 mM Mg(OAc)2, 2 mM DTT; SDS-PAGE, Coomassie; both purified
T1 sequence: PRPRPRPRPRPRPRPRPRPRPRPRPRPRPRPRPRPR

[2] = target: T2, GST:PR18 (Glutathione S-transferase fused to 18 repeats of Pro-Arg); experiment: pull-down; 4 µg GST protein immobilized on 30 µL GSH sepharose beads, incubated with equal molar protein 20–30 min, washed three times; 20 mM HEPES pH 7.4, 150 mM NaCl, 10% glycerol, 2 mM Mg(OAc)2, 2 mM DTT; SDS-PAGE, Coomassie; both purified
T2 sequence: T1 sequence

[3] = target: T3, HA:SBP:GFP:PR20:HA; experiment: co-IP; HeLa cytosol extracts of cells transfected with HA:SBP:GFP:PR20:HA, mixed with Streptavidin Mag Sepharose at 4 °C overnight, washed five times with CE buffer; blot with anti-Kapβ2 and anti-HA
T3 sequence: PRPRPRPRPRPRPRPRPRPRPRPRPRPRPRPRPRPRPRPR

| Substance | binding [1] | binding [2] | binding [3] |
| --- | --- | --- | --- |
| karyopherin-β2 (Kapβ2) (from UniProt Q92973 1-898) (receptor) | binds | binds | – |
| BSA (from UniProt P02769 25-607) | no binding | no binding | – |
| endogenous Kapβ2 (from UniProt Q92973 1-898) (receptor) | – | – | binds |
| Lysozyme (from UniProt P00698 19-147) (enzyme) | no binding | no binding | – |
